Assay results: PubChem BioAssay AID1240 (Sanford-Burnham Center for Chemical Genomics, 2008)
Out of some 50,000 compounds screened, about 800 (1.6%) showed an effect of 50% or more. The list shows a part of the results.

These compounds were tested against Bcl-2-like protein 10 (Homo sapiens) (UniProt Q9HD36) (assay: Phenotype converters, Bcl-B/TR3 peptide binding displacement, primary biochemical FP (AID 1240;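 note: 0% = Bcl-B with tracer peptide and DMSO and 100% = tracer peptide lacking Bcl-B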)). Conditions: GST-Bcl-B / FITC-TR3 peptide fluorescence polarization; stronger effect = higher value; compound at 3.75 mg/L.
UniProt Q9HD36, sequence (Q9HD36 whole entry, looked up): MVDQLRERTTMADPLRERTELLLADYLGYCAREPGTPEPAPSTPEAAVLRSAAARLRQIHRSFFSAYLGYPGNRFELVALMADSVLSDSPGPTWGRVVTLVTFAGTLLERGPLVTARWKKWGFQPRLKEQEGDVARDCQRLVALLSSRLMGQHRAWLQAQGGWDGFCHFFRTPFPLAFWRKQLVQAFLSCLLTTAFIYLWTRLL

Compound	displacement [%]
Cc1ccc(CN2CCN(N=Cc3sccc3C)CC2)c(C)c1	-5.8
O=C(Nc1ccc(Cl)cc1)Nc1nnc(COc2ccc(Cl)cc2Cl)s1	2.4
CCn1c2ccccc2c2cc(CN3CCN(Cc4cc(OC)c(OC)cc4[N+](=O)[O-])CC3)ccc21	21.1
CC(=O)OCCN1C(=O)c2ccc(Oc3cccc(Oc4ccc5c(c4)C(=O)N(CCOC(C)=O)C5=O)c3)cc2C1=O	4.4
CCOC(=O)COc1ccc(C=Nc2ccc3[nH]c(=O)[nH]c3c2)cc1OC	12.1
CCNC(=O)/C(C#N)=C/c1ccc(C(C)(C)C)cc1	1.1
CCOc1cccc(C(=O)Nc2nnc(C)s2)c1	9.5
Clc1ccc(Cl)c(OCCOCCN2CCOCC2)c1	12.6
COc1ccc(C(C)NC(=O)CN(c2ccc(OC)cc2OC)S(=O)(=O)c2ccccc2)cc1 (stereo not given)	-12.5
Cc1sc2ncnc(Nc3cccc(Cl)c3)c2c1C	-5.7
O=C(NC1CCCC1)c1cc(-c2ccc(Cl)cc2)nc2ccccc12	-0.9
Cc1ccc(C(=O)c2sc3nc4c(cc3c2N)CCC4)c(C)c1	-7.9
CCOc1cc(OCC)cc(C(=O)Nc2ccc(-c3nc4ncccc4o3)cc2)c1	0.6
COc1ccc(Cl)cc1C(=O)Nc1ccc(I)cc1Cl	0.4
O=C(Nc1ccc(Br)c(Cl)c1)C(c1ccccc1)c1ccccc1	7.6
COc1ccc(S(=O)(=O)N2CCN(C(C)C)CC2)cc1	10
C=CCOc1c(Br)cc(/C=C2\C(=O)NC(=O)N(c3ccccc3)C2=O)cc1OC	15.7
CC(C)(C)c1csc(NC(=O)c2ccc(Cl)c([N+](=O)[O-])c2)n1	2.9
CC(C)NC(=O)NCC12CC3CC(CC(C3)C1)C2	14
Cc1ccc(S(=O)(=O)N/N=C/c2cccc(OS(=O)(=O)c3ccc(C)cc3)c2)cc1	-0.2
CCCCNC(=O)c1cc2nc(-c3ccc(OCC)cc3)cc(C)n2n1	3.4
O=C(c1ccccc1)N1CCN(c2ccc(Cl)cc2)CC1	7.8
COC(=O)c1ccccc1NC(=O)c1cc(-c2ccccc2)nc2ccccc12	-2.3
COc1ccc(Cl)cc1C(=O)NCCCN(C)C	-7

Compound	displacement [%]
COc1ccc(C2CC(c3ccccc3)=CC(O)(C(C)(C)C)C2C(=O)C(C)(C)C)cc1 (stereo not given)	0.9
CC(=O)c1ccc(-c2ccc(/C=C3/SC(=S)N(c4ccccc4)C3=O)o2)cc1	20.5
CC1CCc2c(sc3nc(-c4ccco4)[nH]c(=O)c23)C1 (stereo not given)	11
O=C1NC(=O)C(=Cc2ccccc2OCCOc2ccccc2)C(=O)N1	11
CC(=O)c1ccc(NC(=O)COc2ccc3ccccc3c2)cc1	3.9
O=C(Nc1ccc(-c2nc3ccccc3s2)cc1)c1cc2ccccc2oc1=O	9.2
O=C(O)CCCN1C(=O)C(=O)/C(=C(/O)c2ccccc2)C1c1ccc(Cl)cc1 (stereo not given)	-0.2
Cc1ccc(C(=O)Nc2ccc(S(=O)(=O)Nc3ncccn3)cc2)cc1[N+](=O)[O-]	16.9
COc1cccc(OC)c1OCCCOc1c(OC)cccc1OC	14.9
O=C(Nc1cccc(C(F)(F)F)c1)c1ccc(I)cc1	7.8
CCCCOc1ccc(-c2nc(-c3ccc(C)cc3)no2)cc1	-9.7
Cc1c(C(=O)Nc2ccc3nn(-c4ccccc4)nc3c2)cccc1[N+](=O)[O-]	0.9
CCOC(=O)C(=CNc1cccc(C)c1C)C(=O)OCC	-15.2
CCOc1ccccc1C1C(C(=O)OC)=C(C)N(C)C(C)=C1C(=O)OC	-9.1
COc1ccccc1Cc1noc(-c2ccc(C)cc2)n1	-5.3
NC(=O)c1c(NC(=O)c2cccs2)sc2c1CCCC2	8.9
CC(=O)Oc1ccc(NC(=O)CC2SC(N)=NC2=O)cc1 (stereo not given)	6.3
Cc1ccc(C2Nc3ccccc3NC3=C2C(=O)CC(c2ccccc2)C3)s1 (stereo not given)	7.3
O=C(N/C(=C\c1ccc(Br)cc1)C(=O)N1CCCCCC1)c1cccs1	3.9
COc1ccc(NC(=O)NC(c2ccccc2)c2ccccc2)cc1OC	-11.5
Oc1ccc(Br)cc1CN1CCN(CC2CC3C=CC2C3)CC1 (stereo not given)	6.8
CCOc1cc(/C=C(\C#N)c2nc3ccccc3[nH]2)cc(I)c1OC	1.8
COc1cc(NS(=O)(=O)c2ccccc2)cc(OC)c1	21.8
Oc1ccc(Br)cc1CN1CCN(Cc2cccnc2)CC1	-6.7

Compound	displacement [%]
CCOc1cc(C2Nc3ccccc3NC3=C2C(=O)CC(c2ccc(OC)c(OC)c2)C3)cc([N+](=O)[O-])c1O (stereo not given)	-0.9
COc1ccc(NC2CC(=O)N(c3ccc(I)cc3)C2=O)cc1 (stereo not given)	-3.4
NC(=O)NC(c1ccccc1)c1ccc(F)cc1 (stereo not given)	9.3
CCCOc1ccc(C(=O)CCc2ccccc2)cc1OCCC	10.6
CC1(c2ccc([N+](=O)[O-])cc2)CC1(Br)Br (stereo not given)	6.1
C(=N/N1CCN(c2ccccc2)CC1)/c1ccncc1	-4.6
Cc1c(C(=O)NCCC(C)C)cccc1[N+](=O)[O-]	4.7
COC(=O)C1=NN(C(=O)c2cccc([N+](=O)[O-])c2)C(O)(c2ccccc2)C1 (stereo not given)	-13.3
N#C/C(=C/c1cc2c(cc1[N+](=O)[O-])OCO2)C(=O)Nc1ccc(F)cc1	-0.4
COc1ccc(CCNC(=O)C(=O)NCc2ccco2)cc1	8.6
O=C(Nc1ccc(Cc2ccc(NC(=O)c3cccnc3)cc2)cc1)c1cccnc1	4.5
CN1CCN(C(=O)c2ccccc2NC(=O)c2cccs2)CC1	3
COC(=O)c1cccc(NC(=O)CC(=O)c2ccccc2)c1	-21.1
COc1cccc(N2C(=O)CC(N3CCN(C/C=C/c4ccccc4)CC3)C2=O)c1 (stereo not given)	0.3
CC(C)=C1C2CCC1C(C(=O)NCc1ccccc1)C2C(=O)O (stereo not given)	6.9
Cc1ccc(N=C2NC(=O)/C(=C/c3cccc(O)c3)S2)cc1Cl	-8.6
CCCOC(=O)c1ccc(NC(=S)NC(=O)COc2ccccc2)cc1	-2.7
CCOc1ccc(N2C(=O)/C(=C\c3cccc(OC)c3OC)C(C(=O)OC)=C2C)cc1	-10.1
OCCNCCOc1ccc(Br)cc1	13.4
CC(=O)Oc1cccc(C(=O)Nc2ccc(OCC(=O)O)cc2)c1	-3
O=C1NC(=O)N(c2ccc3c(c2)OCO3)C(=O)/C1=C/c1ccc(Sc2ccccc2)o1	-3.9
Cc1ccc(NC(=O)c2c(-c3c(F)cccc3Cl)noc2C)cc1	5.7
